Test results: the supplement of paper PMC4967469

What was measured:
Assay in all cases: Viability of human cancer cell lines after 72 h of drug (GDSC screen)
PLX4720 = compound: CCCS(=O)(=O)Nc1ccc(F)c(C(=O)c2c[nH]c3ncc(Cl)cc23)c1F [PLX4720]; conditions: top dose 10 µM
Experimental: (§1)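 Human cancer cell lines in 384-well plates, medium with 10% serum, drug for 72 h over a 256-fold dose range (nine 2-fold or five 4-fold steps up to the top dose). Adherent lines were fixed and stained with the nucleic acid dye Syto60, suspension lines read with resazurin; signal relative to control wells, capped at 0 and 100%. One two-parameter sigmoid per drug and line, fitted in a mixed model over all curves with the slope shared within a line.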

TPCA-1 = compound: NC(=O)Nc1sc(-c2ccc(F)cc2)cc1C(N)=O [TPCA-1]; conditions: top dose 20 µM
Experimental: as §1

PHA-793887 = compound: CC(C)CC(=O)Nc1n[nH]c2c1CN(C(=O)C1CCN(C)CC1)C2(C)C [PHA-793887]; conditions: top dose 10.24 µM
Experimental: as §1

Epothilone B = compound: C/C(=C\c1csc(C)n1)[C@@H]1C[C@@H]2O[C@]2(C)CCC[C@H](C)[C@H](O)[C@@H](C)C(=O)C(C)(C)[C@@H](O)CC(=O)O1 [Epothilone B]; conditions: top dose 0.032 µM; top dose inferred
Experimental: as §1

Y-39983 = compound: C[C@@H](N)c1ccc(C(=O)Nc2ccnc3[nH]ccc23)cc1 [Y-39983]; conditions: top dose 20 µM; top dose inferred
Experimental: as §1

[1] = screen: GDSC drug entry 1371, top dose inferred

Cell Line | AUC (PLX4720; screen: GDSC drug entry 1036) | IC50 (PLX4720; screen: GDSC drug entry 1036) [µM] | AUC (PLX4720; [1]) | IC50 (PLX4720; [1]) [µM] | AUC (TPCA-1) | IC50 (TPCA-1) [µM] | AUC (PHA-793887) | IC50 (PHA-793887) [µM] | AUC (Epothilone B) | IC50 (Epothilone B) [µM] | AUC (Y-39983) | IC50 (Y-39983) [µM]
TOV-112D (ovary, adherent) | 0.96 | > 10 | 0.939 | > 10 | 0.69 | 4.27 | 0.664 | 1.84 | 0.325 | 0.000646 | 0.896 | > 20
TT2609-C02 (thyroid, adherent) | 0.877 | > 10 | 0.909 | > 10 | 0.876 | > 20 | 0.849 | 8.46 | 0.271 | 0.000425 | 0.971 | > 20
TT (thyroid, adherent) | 0.956 | > 10 | 0.98 | > 10 | 0.96 | > 20 | 0.947 | > 10.2 | 0.979 | > 0.032 | 0.982 | > 20
TYK-nu (ovary, adherent) | 0.863 | 9.68 | 0.904 | > 10 | 0.967 | > 20 | 0.979 | > 10.2 | 0.87 | > 0.032 | 0.975 | > 20
U031 (kidney, adherent) | 0.915 | > 10 | 0.972 | > 10 | 0.823 | 12.4 | 0.925 | > 10.2 | 0.583 | 0.00341 | 0.889 | > 20
U251 (glioma, adherent) |  |  | 0.951 | > 10 | 0.882 | 19.5 | 0.608 | 1.25 | 0.753 | 0.0103 | 0.778 | 7.71
U-2-OS (osteosarcoma, adherent) |  |  | 0.984 | > 10 | 0.978 | > 20 | 0.982 | > 10.2 | 0.981 | > 0.032 | 0.971 | > 20
U-118-MG (glioma, adherent) | 0.986 | > 10 | 0.977 | > 10 | 0.952 | > 20 | 0.986 | > 10.2 | 0.799 | 0.0182 | 0.986 | > 20
UACC-62 (melanoma, adherent) | 0.981 | > 10 | 0.506 | 0.65 | 0.987 | > 20 | 0.979 | > 10.2 | 0.928 | > 0.032 | 0.988 | > 20
UACC-893 (breast, adherent) | 0.979 | > 10 | 0.966 | > 10 | 0.928 | > 20 | 0.913 | > 10.2 | 0.847 | > 0.032 | 0.972 | > 20
UM-UC-3 (bladder, adherent) |  |  | 0.955 | > 10 | 0.83 | 11.5 | 0.795 | 4.44 | 0.487 | 0.00184 | 0.932 | > 20
UMC-11 (lung carcinoid, adherent) |  |  | 0.986 | > 10 | 0.9 | > 20 | 0.909 | > 10.2 | 0.926 | > 0.032 | 0.892 | 19.2
VM-CUB-1 (bladder, adherent) | 0.944 | > 10 |  |  | 0.969 | > 20 | 0.982 | > 10.2 | 0.56 | 0.0029 | 0.986 | > 20
VMRC-MELG (melanoma, adherent) |  |  | 0.982 | > 10 | 0.955 | > 20 | 0.987 | > 10.2 | 0.972 | > 0.032 | 0.987 | > 20
VMRC-RCZ (kidney, adherent) | 0.981 | > 10 | 0.977 | > 10 | 0.875 | > 20 | 0.924 | > 10.2 | 0.266 | 0.00038 | 0.844 | 18
WM35 (melanoma, adherent) | 0.983 | > 10 | 0.505 | 0.646 | 0.602 | 2.39 | 0.742 | 3.17 | 0.486 | 0.00184 | 0.926 | > 20
WM278 (melanoma, adherent) |  |  | 0.856 | 9.71 | 0.677 | 4.19 | 0.984 | > 10.2 | 0.814 | 0.0202 | 0.945 | > 20
WM793B (melanoma, adherent) | 0.868 | > 10 | 0.925 | > 10 | 0.946 | > 20 | 0.769 | 4.26 | 0.423 | 0.0012 | 0.94 | > 20
WM1552C (melanoma, adherent) | 0.814 | 5.49 | 0.951 | > 10 | 0.983 | > 20 | 0.906 | > 10.2 | 0.534 | 0.00248 | 0.849 | 15.1
WM-115 (melanoma, adherent) | 0.552 | 0.897 | 0.878 | > 10 | 0.83 | 16.6 | 0.76 | 4.38 | 0.969 | > 0.032 | 0.975 | > 20
YAPC (pancreas, adherent) | 0.974 | > 10 | 0.954 | > 10 | 0.893 | > 20 | 0.931 | > 10.2 | 0.957 | > 0.032 | 0.967 | > 20
YKG-1 (glioma, adherent) | 0.858 | 8.42 | 0.985 | > 10 | 0.93 | > 20 | 0.661 | 1.8 | 0.452 | 0.00148 | 0.914 | > 20
huH-1 (liver, adherent) | 0.935 | > 10 | 0.961 | > 10 | 0.984 | > 20 | 0.984 | > 10.2 | 0.813 | 0.0226 | 0.984 | > 20

Lines with a small IC50 respond at low doses; a fit beyond the top or the lowest dose is shown as a bound at that dose. For AUC the same curve is integrated over the 256-fold range of doses and scaled to a fraction; values near 1 show little effect. For some of these results: An inferred top dose is not printed in the source and was worked back from the curve model. For some of these results: Where an entry number is given, a second screen of the drug exists; the two often differ.
